The other results are listed elsewhere or left out. At the low end of the ranking the order means little. The protein was read in a cell extract, so binding may be indirect.

In this assay the target is T1, HNF4alpha2 (COS-7 nuclear extract) (UniProt P41235).
T1 sequence: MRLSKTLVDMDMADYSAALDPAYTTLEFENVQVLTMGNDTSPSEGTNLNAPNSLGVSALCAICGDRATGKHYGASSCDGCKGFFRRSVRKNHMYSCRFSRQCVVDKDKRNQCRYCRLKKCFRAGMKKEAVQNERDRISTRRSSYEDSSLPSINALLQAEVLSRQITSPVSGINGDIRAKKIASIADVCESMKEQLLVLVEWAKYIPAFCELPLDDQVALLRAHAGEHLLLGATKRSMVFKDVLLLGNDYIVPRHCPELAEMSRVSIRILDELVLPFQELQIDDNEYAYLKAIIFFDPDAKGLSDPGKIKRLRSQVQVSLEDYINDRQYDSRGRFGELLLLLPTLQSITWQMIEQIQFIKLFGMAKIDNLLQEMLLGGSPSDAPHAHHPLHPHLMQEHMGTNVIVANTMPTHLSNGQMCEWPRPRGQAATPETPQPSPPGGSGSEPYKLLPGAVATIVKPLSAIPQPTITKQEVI
The experiment in a line: protein-binding microarray. Particulars: COS-7 nuclear extract on double-stranded Agilent 4x180k PBM; binding buffer, salt, pH and temperature not given; high values mean tight binding; double strand, one strand shown; sequences stand for … in …GCCTAGGGAGATTAGAGTATCGGTCGA
As to CACCAACAGGATTGTGAAACGTTTGAATTC, the binding signal (log2 normalized intensity) was 0.425. For AGCCAGTGAACCTTTGTCCCGTTATGGCAC, the binding signal (log2 normalized intensity) worked out at 2.88. Under ACATTAATCAGTCGCGTATCTGACTTTATC stands 0.796.

Consider TCACTGGGAGAGAAAGCTAATTTAATAAAC, for which the binding signal (log2 normalized intensity) was -1.11.

Consider TCCTCTTATCTTCAGGTTTGCTAATATCTG, for which the binding signal (log2 normalized intensity) is 1.35. Under GTAAAATGGACATAGTAACAACCTAAATCA stands -1.07. Under TCCACTAACTTGAGTGTGCACCCTGGTCTC stands 1.66.

For AAAATACAGCTGGGAAAAGGCGCATGCATA, the binding signal (log2 normalized intensity) is -1.05. Under CTGTCCCTTCTTGGCAAGTTAATGTGGCCT stands 2.29.

CACAGGCAACAGAGGAGCATGGACTTCTGA: the binding signal (log2 normalized intensity) worked out at 1.32. Under GTTTGCATTTTAACCTTTGGCTGGTAGAGC stands 3.5. Consider GAGACCTCTAGACTCCAGCTAAAGCCTGCT, for which the binding signal (log2 normalized intensity) was -1.1. Under CGAAATGTGGGTGAGGCTGTGATGTTTGCC stands 1.31.

Turning to CAGTAGTATTACCTGCATCTGCCCAGCAGA, the binding signal (log2 normalized intensity) is -1.09. Under GCAAACCTACCTGAACTTTGCCCCAGAGGA stands 5.9. Under CTTTCCGTTAGGCTACAGTGGTAACCACAG stands -1.13; under TTAATACTTTGGAACTCAGTTAATGTACAG, 1.49. Take TGTTTCTTGTCCAGGGACTTTGAACACTTC: the binding signal (log2 normalized intensity) came to 4.36. Under GATGACATCATCTGTTTGTACGCGTCGAAC stands -0.199. Under GACAGGAACATCTGATTTCCCCGTCCCAAG stands 2.96; under AAGGTCACTAATTGGAAGCTCTTTCCCTCC, 0.63. Under GGCTGTATGTACACTTGCCCTCTCACCAGA stands 1.21; under TGTTTGGATTGGGCAATGACCTGGACAGGT, 1.73. TGCAATGCATGCTGCCAAACTGCCCAGCAG: the binding signal (log2 normalized intensity) was -1.15.

For the sequence ACCAAAGGTCTTGTACAAAGGTCCTGTGGG, the binding signal (log2 normalized intensity) came out at 1.66. Under TTCCATATTCTATCAGTAGGTACGTTTGTG stands 2.42; under TTTTCAGACCTTGCATTCTGAGGAACCAGA, -1.07; under AACCCGGGCGCACAAGATGCCGCCTCCCCG, -0.673. Under AGGTGAGCAGGCAGAGGTCAATGTCCACAC stands 5.59. Under TGAGATAGGTATGATAACCCCCGTCACTGC stands 3.44. With ACAGAGATCAGAATCATAAAGCAGGGAGAG, the binding signal (log2 normalized intensity) was -1.1. Under GGCAGCTTAAAAATGTTGACGCTATTTTAG stands -1.05. CAAGGAGGCCCCAACATTCCAGAGAAGCAC: the binding signal (log2 normalized intensity) was -1.2. Under TTGGCAGCCACTGAGGCTCTGTGCCTTGTA stands -0.881. Under ACACAGGCTCAACGGGTTAGACGCACGGCA stands -1.06; under ACCAAGGCTGCTTAACAAACACAAAAAGCG, -1.13; under ATTTTACACCTTTTCTAGCTGAGTTGACCT, 4.46.

Consider GGGACAGATGTTTGGTTGAGCAAGCTGACA, for which the binding signal (log2 normalized intensity) is -1.08. Take GGGAGGTTATCTTGGGGCTGATGTCTTTCT: the binding signal (log2 normalized intensity) stood at 1.74.

TCAAACAGTCTAAAAACCATAGACATTCCT: the binding signal (log2 normalized intensity) is -1.1.

For the sequence CAAACTGCCCAGCAGAAAAGCTGTACCAAT, the binding signal (log2 normalized intensity) was -1.1.

Take AGGTTTTGAGGGAAGTGAACCAATCTTGAG: the binding signal (log2 normalized intensity) is -0.0415. Under TAATCAAAGAGAAAAACATTGCATACTCAG stands -1.09. Turning to CAGTTCAGGCCATCACACTCCTACCCATTC, the binding signal (log2 normalized intensity) was -1.29. Under ACAACACTCAGGATACCTAAGCCCCATGCT stands -1.06. Under AGCAGAGCACGATGAATAGGGACGTTCTAC stands -1.02; under ACTCTAACTGGCTTTAAGAGGAATGCTTTG, -0.822. Turning to GCAGTTCCTGATCTTTGACCTGGAGCATGA, the binding signal (log2 normalized intensity) was found to be 4.61. With AGGGAAGGCTGCCGTCCTCAGTGAATCACA, the binding signal (log2 normalized intensity) was -1.08. For the sequence GTTTTGGCCAACAGAGGGGTCAGAGGCCAG, the binding signal (log2 normalized intensity) stood at 2.43. Under TCCTGCCAAACCAGTTCAACAAGAATTCCC stands -1.06; under AGTCTCAAAGGTCAGATGACAGAATTGGTC, 3.5. Under CTTCAGGATGAAGGCTGCTGCCTGAAAGGC stands -1.1.

Turning to GAGCAAAGGGCATGGAGGATTTAGATAACA, the binding signal (log2 normalized intensity) stood at 0.799.

Turning to GGAGCCACTGAAGTGAGTTAATAAATACTG, the binding signal (log2 normalized intensity) is -1.13. Under GCTGATTACAGGTTGCAGTAAAGAAACTGG stands -0.945; under AATCCTGCTCCTTCTGAATCTGTTCCACCT, 0.623; under GTTCTCTAGAAACAGAGCCCAAGGCAAAGC, -1.08. Under TGAAGTCAAAGGAGGCATTCCTGCAATCAG stands -0.786; under CAGCCTGGAGGAGGGCGAGGCCGAGCCTCA, -0.906.

Consider TTGCCTAACTGCTGCATGTCATGACCTTCA, for which the binding signal (log2 normalized intensity) was 3.45. Under AGTGGAGAAACCTGACAGACTGGACTGCTG stands -1.09.

As for AGCCCCTTTTGGAATCCCCATCTCACCATA, the binding signal (log2 normalized intensity) was 3.22.

Take AGCCTTTGAGAAGCAGGAGCATGGGGGATG: the binding signal (log2 normalized intensity) was -1.3. As to GCTGGGATGATTCCCTTATCTTCTCCCCTG, the binding signal (log2 normalized intensity) came out at 1.8. Under CTCTTTGGCCTGGCATTTGAGACTAGCCAC stands -0.813. Consider AGAGGTCAGCCCACAGGTCAATCCAGGTTG, for which the binding signal (log2 normalized intensity) stood at 0.169. Under GAATGTAGACCTTTACCACCCTCACAGCTC stands 0.795; under TTCAGCGGTGCATTTTTTTCCACCCTCCCC, 4.27.

For CACATTAACTGTGCTTCTGGGGTATAAAGG, the binding signal (log2 normalized intensity) was found to be 1.72. On to AAAAAAAAAGGCAGTCCTTAGATCCACGGA, for which the binding signal (log2 normalized intensity) was -1.21. On to TCATTCTAACCCAAATGCAAATACCTATAG, for which the binding signal (log2 normalized intensity) amounted to 1.36. Under GTTGTACCTTGACCCAAGAAATAAAAACAG stands 2.03.

Values taken from article PMC10726135.
